Assay [1] has as its target T1, PRYSPRY domain of mouse TRIM21 with N-terminal 6xHis tag (mouse).
T1 construct: Expressed in E. coli; also called mTRIM21; mouse TRIM21.PRYSPRY
T1 chain: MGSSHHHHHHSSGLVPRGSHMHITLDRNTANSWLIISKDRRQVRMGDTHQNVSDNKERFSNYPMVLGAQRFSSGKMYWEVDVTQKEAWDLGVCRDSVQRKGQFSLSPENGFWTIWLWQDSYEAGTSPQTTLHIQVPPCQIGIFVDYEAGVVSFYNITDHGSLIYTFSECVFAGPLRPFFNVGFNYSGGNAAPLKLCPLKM
The assay is described as follows: SPR, Protein L capture.

For assay [2], the target named is T2, PRYSPRY domain of human TRIM21 with N-terminal 6xHis tag (human).
T2 construct: Expressed in E. coli; also called hTRIM21; human TRIM21.PRYSPRY
T2 chain: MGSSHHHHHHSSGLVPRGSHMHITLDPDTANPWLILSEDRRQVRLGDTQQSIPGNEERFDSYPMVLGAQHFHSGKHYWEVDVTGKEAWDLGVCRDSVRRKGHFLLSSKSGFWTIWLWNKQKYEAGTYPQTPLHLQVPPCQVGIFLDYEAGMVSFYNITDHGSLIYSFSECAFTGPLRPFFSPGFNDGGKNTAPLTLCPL
Put plainly: SPR, Protein L capture. (In general: SPR reads the build-up and loss of mass on a sensor chip optically.)

The target of assay [3] is T3, human FcRn (human, UniProt P55899 partial chain; P61769 partial chain, limits assumed).
T3 construct: also called hFcRn
Put plainly: SPR, Protein L capture.

The target in assay [4] is T4, human FcRn (human, UniProt P55899 partial chain; P61769 partial chain, limits assumed).
T4 construct: also called hFcRn
Put plainly: SPR pH 6.0, Ab captured on Protein L, 1 uM hFcRn.

Assay [5] deals with T5, mouse TRIM21 PRYSPRY domain with N-terminal 6xHis tag (mouse).
T5 construct: Expressed from pET28a in E. coli; also called mTRIM21
T5 chain: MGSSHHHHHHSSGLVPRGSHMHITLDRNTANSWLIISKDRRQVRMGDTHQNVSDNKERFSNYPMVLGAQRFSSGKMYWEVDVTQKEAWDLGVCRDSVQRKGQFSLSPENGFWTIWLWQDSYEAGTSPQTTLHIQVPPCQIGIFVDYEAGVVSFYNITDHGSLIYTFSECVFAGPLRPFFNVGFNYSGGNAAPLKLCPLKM
The assay is described as follows: SPR, Ab captured on Protein L, 100 nM mTRIM21.

The target of assay [6] is T6, human TRIM21 PRYSPRY domain with N-terminal 6xHis tag (human).
T6 construct: Expressed from pET28a in E. coli; also called hTRIM21
T6 chain: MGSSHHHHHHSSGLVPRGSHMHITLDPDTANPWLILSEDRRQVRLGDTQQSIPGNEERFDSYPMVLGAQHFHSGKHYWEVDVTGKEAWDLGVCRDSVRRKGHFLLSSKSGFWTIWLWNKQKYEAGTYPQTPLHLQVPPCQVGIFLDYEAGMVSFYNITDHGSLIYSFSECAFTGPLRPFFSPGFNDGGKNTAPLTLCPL
Put plainly: SPR, Ab captured on Protein L, 100 nM hTRIM21.

B1: MRAH-G1d/MRAL-KT0 Y436T (antibody, human IgG1, kappa)
heavy: QVQLQESGPGLVRPSQTLSLTCTVSGYSITSDHAWSWVRQPPGRGLEWIGYISYSGITTYNPSLKSRVTMLRDTSKNQFSLRLSSVTAADTAVYYCARSLARTTAMDYWGQGSLVTVSS[human IgG1 constant region with Y436T (EU numbers) omitted here]
light: DIQMTQSPSSLSASVGDRVTITCRASQDISSYLNWYQQKPGKAPKLLIYYTSRLHSGVPSRFSGSGSGTDFTFTISSLQPEDIATYYCQQGNTLPYTFGQGTKVEIKRTVAAPSVFIFPPSDEQLKSGTASVVCLLNNFYPREAKVQWKVDNALQSGNSQESVTEQDSKDSTYSLSSTLTLSKADYEKHKVYACEVTHQGLSSPVTKSFNRGEC
notes: copies: 2 + 2
As to B1, the “mTRIM21 binding level ratio (variant/control antibody)” value in assay [1] is 1.99. Besides, the “hTRIM21 binding level ratio (variant/control antibody)” value in assay [2] stood at 1.08. Further, the “hFcRn binding level ratio (variant/control antibody)” value in assay [3] came to 0.94.

B2: MRAH-G1d/MRAL-KT0 Q438A (antibody, human IgG1, kappa)
heavy: QVQLQESGPGLVRPSQTLSLTCTVSGYSITSDHAWSWVRQPPGRGLEWIGYISYSGITTYNPSLKSRVTMLRDTSKNQFSLRLSSVTAADTAVYYCARSLARTTAMDYWGQGSLVTVSS[human IgG1 constant region with Q438A (EU numbers) omitted here]
light: DIQMTQSPSSLSASVGDRVTITCRASQDISSYLNWYQQKPGKAPKLLIYYTSRLHSGVPSRFSGSGSGTDFTFTISSLQPEDIATYYCQQGNTLPYTFGQGTKVEIKRTVAAPSVFIFPPSDEQLKSGTASVVCLLNNFYPREAKVQWKVDNALQSGNSQESVTEQDSKDSTYSLSSTLTLSKADYEKHKVYACEVTHQGLSSPVTKSFNRGEC
Take B2: the “hFcRn binding level ratio (variant/control antibody)” value in assay [4] amounted to 0.92. Further, the “mTRIM21 binding level ratio (variant/control antibody)” value in assay [5] stood at 1.97. Moreover, the “hTRIM21 binding level ratio (variant/control antibody)” value in assay [6] came to 0.886.

B3: MRAH-G1d/MRAL-KT0 K439L (antibody, human IgG1, kappa)
heavy: QVQLQESGPGLVRPSQTLSLTCTVSGYSITSDHAWSWVRQPPGRGLEWIGYISYSGITTYNPSLKSRVTMLRDTSKNQFSLRLSSVTAADTAVYYCARSLARTTAMDYWGQGSLVTVSS[human IgG1 constant region with K439L (EU numbers) omitted here]
light: DIQMTQSPSSLSASVGDRVTITCRASQDISSYLNWYQQKPGKAPKLLIYYTSRLHSGVPSRFSGSGSGTDFTFTISSLQPEDIATYYCQQGNTLPYTFGQGTKVEIKRTVAAPSVFIFPPSDEQLKSGTASVVCLLNNFYPREAKVQWKVDNALQSGNSQESVTEQDSKDSTYSLSSTLTLSKADYEKHKVYACEVTHQGLSSPVTKSFNRGEC
On to B3, for which the “hFcRn binding level ratio (variant/control antibody)” value in assay [4] worked out at 0.93. In addition, the “mTRIM21 binding level ratio (variant/control antibody)” value in assay [5] worked out at 2.1. In assay [6], the “hTRIM21 binding level ratio (variant/control antibody)” value was 1.04.

B4: MRAH-G1d/MRAL-KT0 T437P (antibody, human IgG1, kappa)
heavy: QVQLQESGPGLVRPSQTLSLTCTVSGYSITSDHAWSWVRQPPGRGLEWIGYISYSGITTYNPSLKSRVTMLRDTSKNQFSLRLSSVTAADTAVYYCARSLARTTAMDYWGQGSLVTVSS[human IgG1 constant region with T437P (EU numbers) omitted here]
light: DIQMTQSPSSLSASVGDRVTITCRASQDISSYLNWYQQKPGKAPKLLIYYTSRLHSGVPSRFSGSGSGTDFTFTISSLQPEDIATYYCQQGNTLPYTFGQGTKVEIKRTVAAPSVFIFPPSDEQLKSGTASVVCLLNNFYPREAKVQWKVDNALQSGNSQESVTEQDSKDSTYSLSSTLTLSKADYEKHKVYACEVTHQGLSSPVTKSFNRGEC
In the case of B4, the “hFcRn binding level ratio (variant/control antibody)” value in assay [4] was found to be 0.03. For the same molecule, the “mTRIM21 binding level ratio (variant/control antibody)” value in assay [5] is -0.129.

B5: MRAH-G1d/MRAL-KT0 K439M (antibody, human IgG1, kappa)
heavy: QVQLQESGPGLVRPSQTLSLTCTVSGYSITSDHAWSWVRQPPGRGLEWIGYISYSGITTYNPSLKSRVTMLRDTSKNQFSLRLSSVTAADTAVYYCARSLARTTAMDYWGQGSLVTVSS[human IgG1 constant region with K439M (EU numbers) omitted here]
light: DIQMTQSPSSLSASVGDRVTITCRASQDISSYLNWYQQKPGKAPKLLIYYTSRLHSGVPSRFSGSGSGTDFTFTISSLQPEDIATYYCQQGNTLPYTFGQGTKVEIKRTVAAPSVFIFPPSDEQLKSGTASVVCLLNNFYPREAKVQWKVDNALQSGNSQESVTEQDSKDSTYSLSSTLTLSKADYEKHKVYACEVTHQGLSSPVTKSFNRGEC
With B5, the “hFcRn binding level ratio (variant/control antibody)” value in assay [4] came to 0.92. The “mTRIM21 binding level ratio (variant/control antibody)” value in assay [5] was 2.2. The “hTRIM21 binding level ratio (variant/control antibody)” value in assay [6] was found to be 1.09.

B6: MRAH-G1d/MRAL-KT0 K439Y (antibody, human IgG1, kappa)
heavy: QVQLQESGPGLVRPSQTLSLTCTVSGYSITSDHAWSWVRQPPGRGLEWIGYISYSGITTYNPSLKSRVTMLRDTSKNQFSLRLSSVTAADTAVYYCARSLARTTAMDYWGQGSLVTVSS[human IgG1 constant region with K439Y (EU numbers) omitted here]
light: DIQMTQSPSSLSASVGDRVTITCRASQDISSYLNWYQQKPGKAPKLLIYYTSRLHSGVPSRFSGSGSGTDFTFTISSLQPEDIATYYCQQGNTLPYTFGQGTKVEIKRTVAAPSVFIFPPSDEQLKSGTASVVCLLNNFYPREAKVQWKVDNALQSGNSQESVTEQDSKDSTYSLSSTLTLSKADYEKHKVYACEVTHQGLSSPVTKSFNRGEC
Turning to B6, the “hFcRn binding level ratio (variant/control antibody)” value in assay [4] was 0.59. Besides, in assay [5], the “mTRIM21 binding level ratio (variant/control antibody)” value amounted to 2. Besides, the “hTRIM21 binding level ratio (variant/control antibody)” value in assay [6] came out at 0.984.

B7: MRAH-G1d/MRAL-KT0 K439V (antibody, human IgG1, kappa)
heavy: QVQLQESGPGLVRPSQTLSLTCTVSGYSITSDHAWSWVRQPPGRGLEWIGYISYSGITTYNPSLKSRVTMLRDTSKNQFSLRLSSVTAADTAVYYCARSLARTTAMDYWGQGSLVTVSS[human IgG1 constant region with K439V (EU numbers) omitted here]
light: DIQMTQSPSSLSASVGDRVTITCRASQDISSYLNWYQQKPGKAPKLLIYYTSRLHSGVPSRFSGSGSGTDFTFTISSLQPEDIATYYCQQGNTLPYTFGQGTKVEIKRTVAAPSVFIFPPSDEQLKSGTASVVCLLNNFYPREAKVQWKVDNALQSGNSQESVTEQDSKDSTYSLSSTLTLSKADYEKHKVYACEVTHQGLSSPVTKSFNRGEC
Regarding B7, the “hFcRn binding level ratio (variant/control antibody)” value in assay [4] turned out to be 0.08. The “mTRIM21 binding level ratio (variant/control antibody)” value in assay [5] amounted to 2.18. The “hTRIM21 binding level ratio (variant/control antibody)” value in assay [6] turned out to be 1.1.

B8: MRAH-G1d/MRAL-KT0 K439I (antibody, human IgG1, kappa)
heavy: QVQLQESGPGLVRPSQTLSLTCTVSGYSITSDHAWSWVRQPPGRGLEWIGYISYSGITTYNPSLKSRVTMLRDTSKNQFSLRLSSVTAADTAVYYCARSLARTTAMDYWGQGSLVTVSS[human IgG1 constant region with K439I (EU numbers) omitted here]
light: DIQMTQSPSSLSASVGDRVTITCRASQDISSYLNWYQQKPGKAPKLLIYYTSRLHSGVPSRFSGSGSGTDFTFTISSLQPEDIATYYCQQGNTLPYTFGQGTKVEIKRTVAAPSVFIFPPSDEQLKSGTASVVCLLNNFYPREAKVQWKVDNALQSGNSQESVTEQDSKDSTYSLSSTLTLSKADYEKHKVYACEVTHQGLSSPVTKSFNRGEC
Turning to B8, the “hFcRn binding level ratio (variant/control antibody)” value in assay [4] was determined as 0.93. Also, the “mTRIM21 binding level ratio (variant/control antibody)” value in assay [5] was 2.04. In addition, the “hTRIM21 binding level ratio (variant/control antibody)” value in assay [6] came out at 0.964.

B9: MRAH-G1d/MRAL-KT0 K439F (antibody, human IgG1, kappa)
heavy: QVQLQESGPGLVRPSQTLSLTCTVSGYSITSDHAWSWVRQPPGRGLEWIGYISYSGITTYNPSLKSRVTMLRDTSKNQFSLRLSSVTAADTAVYYCARSLARTTAMDYWGQGSLVTVSS[human IgG1 constant region with K439F (EU numbers) omitted here]
light: DIQMTQSPSSLSASVGDRVTITCRASQDISSYLNWYQQKPGKAPKLLIYYTSRLHSGVPSRFSGSGSGTDFTFTISSLQPEDIATYYCQQGNTLPYTFGQGTKVEIKRTVAAPSVFIFPPSDEQLKSGTASVVCLLNNFYPREAKVQWKVDNALQSGNSQESVTEQDSKDSTYSLSSTLTLSKADYEKHKVYACEVTHQGLSSPVTKSFNRGEC
Turning to B9, the “hFcRn binding level ratio (variant/control antibody)” value in assay [4] amounted to 0.79. Also, in assay [5], the “mTRIM21 binding level ratio (variant/control antibody)” value was determined as 1.89. The “hTRIM21 binding level ratio (variant/control antibody)” value in assay [6] was found to be 0.932.

B10: MRAH-G1d/MRAL-KT0 Y436V (antibody, human IgG1, kappa)
heavy: QVQLQESGPGLVRPSQTLSLTCTVSGYSITSDHAWSWVRQPPGRGLEWIGYISYSGITTYNPSLKSRVTMLRDTSKNQFSLRLSSVTAADTAVYYCARSLARTTAMDYWGQGSLVTVSS[human IgG1 constant region with Y436V (EU numbers) omitted here]
light: DIQMTQSPSSLSASVGDRVTITCRASQDISSYLNWYQQKPGKAPKLLIYYTSRLHSGVPSRFSGSGSGTDFTFTISSLQPEDIATYYCQQGNTLPYTFGQGTKVEIKRTVAAPSVFIFPPSDEQLKSGTASVVCLLNNFYPREAKVQWKVDNALQSGNSQESVTEQDSKDSTYSLSSTLTLSKADYEKHKVYACEVTHQGLSSPVTKSFNRGEC
notes: copies: 2 + 2
Consider B10, for which the “mTRIM21 binding level ratio (variant/control antibody)” value in assay [1] came out at 0.483. Also, in assay [2], the “hTRIM21 binding level ratio (variant/control antibody)” value was found to be 0.122. Besides, the “hFcRn binding level ratio (variant/control antibody)” value in assay [3] is 0.79.

Source of the values: patent US20210238308A1 (Chugai, published 2021).
